Laboratory results: patent publication US4479951A, “1.4;3.6-Dianhydrohexitol nitrates substituted by purine bases, processes for their preparation and pharmaceutical compositions” (Dr. Willmar Schwabe GmbH & Co., priority 1980, dated 1984)
Where two headings read alike, the source gives them in different places.

System: isolated guinea pig hearts
Assay: coronary flowthrough-increasing effectiveness, isolated hearts according to Langendorff
Conditions: Cavia porcellus
[1] = read-out: Flowthrough, percentage change in comparison with the initial values
[2] = read-out: Frequency, percentage change in comparison with the initial values
[3] = read-out: Inotropism, percentage change in comparison with the initial values

SMILES | activation at 25 µg/mL [1] | activation at 25 µg/mL [2] | activation at 25 µg/mL [3]
CN1CCN(c2ncnc3c2ncn3[C@H]2CO[C@H]3[C@@H]2OC[C@@H]3O[N+](=O)[O-])CC1 [Example 9b, 5-[6-(4-Methylpiperazino)-purin-9-yl]-5-desoxy-1.4;3.6-dianhydro-L-iditol 2-nitrate] | 35.9% | -7.58% | -5.15%
CCNc1ncnc2c1ncn2[C@H]1CO[C@H]2[C@@H]1OC[C@@H]2O[N+](=O)[O-] [Example 5b, 5-(6-Ethylaminopurin-9-yl)-5-desoxy-1.4;3.6-dianhydro-L-iditol 2-nitrate] | 67% | -1.54% | -6.1%
CNc1ncnc2c1ncn2[C@H]1CO[C@H]2[C@@H]1OC[C@@H]2O[N+](=O)[O-] [Example 3c, 5-(6-Methylaminopurin-9-yl)-5-desoxy-1.4;3.6-dianhydro-L-iditol 2-nitrate] | 39.9% | 0.6% | -4.74%
Cn1c(=O)c2c(ncn2[C@H]2CO[C@H]3[C@@H]2OC[C@@H]3O[N+](=O)[O-])n(C)c1=O [Example 12b, 5-(7-Theophyllinyl)-5-desoxy-1.4;3.6-dianhydro-L-iditol 2-nitrate] | 11.4% | 7.84% | 0%
O=[N+]([O-])O[C@H]1CO[C@H]2[C@@H]1OC[C@@H]2n1cnc2c(N3CCCC3)ncnc21 [Example 6b, 5-(6-Pyrrolidinopurin-9-yl)-5-desoxy-1.4;3.6-dianhydro-L-iditol 2-nitrate] | 23.9% | 0.15% | -13%
Nc1ncnc2c1ncn2[C@H]1CO[C@H]2[C@@H]1OC[C@@H]2O[N+](=O)[O-] [1c/2c, 5-(9-Adenyl)-5-desoxy-1.4;3.6-dianhydro-L-iditol 2-nitrate] | 92.1% | 4.92% | -8.97%
CN(C)c1ncnc2c1ncn2[C@H]1CO[C@H]2[C@@H]1OC[C@@H]2O[N+](=O)[O-] [Example 4b, 5-(6-Dimethylaminopurin-9yl)-5-desoxy-1.4;3.6-dianhydro-L-iditol 2-nitrate] | 103% | -4.92% | -7.49%
O=[N+]([O-])O[C@@H]1CO[C@H]2[C@@H]1OC[C@@H]2O [ISMN, 1.4;3.6-dianhydro-D-glucitol 2-nitrate, reference compound] |  | -0.51% | -2.67%
